Assay results taken from the supplement of paper PMC10126150.
Sequences with one replicate were seen in a single cluster, so their values are uncertain.

The sequences below were run on ATP (assay: switch fluorescence ratio, 500 uM ATP over buffer (Cy3 cluster intensity, sum of 5 cycles each) (fold (ratio)); higher = stronger signal-on switching upon ATP binding; sequences stand for … in TCGTCGGCAGCGTCAGATGTGTATAAGAGACAGTTTTTTTTTTTTTTTTTTTTTTTTT…TC). Conditions: aptamer strand: ATP DNA aptamer (quencher-CACCTGGGGGAGTATTGCGGAGGAAGG + anchor), 100 nM annealed; ATP concentration: 500 uM; one replicate.
Method in brief: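 Five buffer/ATP imaging cycles were run on Cy3-labelled switching-strand clusters on a modified Illumina MiSeq flow-cell, with NaOH stripping and re-annealing between cycles. In each cycle, clusters annealed to 100 nM quencher-labelled ATP aptamer were imaged in selection buffer, then after 15 min with 500 uM ATP at 22 °C. Per cluster, the fluorescence ratio is summed target-cycle over summed buffer-cycle Cy3 intensity, averaged per switch-domain sequence. Only clusters within 100-1000 RFU were kept.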
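Further: ATP exposure 15 min at 22 °C before imaging.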

Row | Sequence | switch fluorescence ratio
1 | GTATATAAAC | 1.02
2 | CAGTAAGTTC | 1.06
3 | CGAATCCTGG | 1.06
4 | GACCCGAAGC | 1.97
5 | TCTCGCCGTG | 0.95
6 | CCGGGGTTAC | 3.15
7 | GTAGAAGTAA | 1.01
8 | CGGGGACCTG | 0.987
9 | ACCTGTAAGT | 1.08
10 | TCCGTTCAGC | 1.33
11 | GCGGCAGCGA | 0.992
12 | GAAGGTTCTC | 0.989
13 | AATACTGTTT | 1.03
14 | GCGAGGGGAC | 0.993
15 | ATATGATGCG | 0.996
16 | ATATATGTGA | 1
17 | CTGAGAGCAT | 1.61
18 | TAGGGCCCGC | 1.03
19 | TTGGCGATTG | 1
20 | ATTGCTTCCG | 1.07
21 | GTCAGCGTCC | 1.06
22 | GCCAACCTGT | 0.982
23 | AGGTCGTAAG | 1.02
24 | TAGAAGGTCA | 1
25 | AAAAGGCTCA | 1.04

Row | Sequence | switch fluorescence ratio
26 | CTGATGGAAG | 1.01
27 | ACCTTAACAG | 1.12
28 | GACCTTAGGC | 1.03
29 | AGGTTCAACA | 1.02
30 | TGGGTTTAAA | 1
31 | TGTGGTCTTA | 1.02
32 | GTAAGGACAC | 1.07
33 | AGCTTTACAA | 1.01
34 | TTCGGGATTC | 1.8
35 | TCCTACCGGA | 1.11
36 | AATTCTGGGG | 1
37 | TGCTTACAAT | 1.04
38 | CGTTTGAT | 0.985
39 | CGAGATTTGA | 0.966
40 | ATAACTGGTA | 1
41 | GCCTGAAGGC | 0.969
42 | CTGTCCGGGG | 0.989
43 | TTCATTTTAC | 1.02
44 | ACCGGATGAG | 0.96
45 | CGGTTGGCTA | 0.99
46 | TTTAGAGTCT | 1.01
47 | ACCTAGCTGG | 0.96
48 | ATCCTGTGGA | 1.05
49 | TTCTTAAGAT | 0.998
50 | GAAGGATACT | 1.02

Row | Sequence | switch fluorescence ratio
51 | GCTCCTCGCG | 1.17
52 | ATGGCTTTGA | 1
53 | CTATCAATT | 1.01
54 | AAAAAAGCAC | 1.08
55 | ATTTTCTATT | 0.956
56 | CCAGACGTCA | 1.03
57 | TATCAGACTG | 0.907
58 | GAATGATTCC | 1.03
59 | AAAGTAGGAA | 0.987
60 | AGGTTGCGG | 0.977
61 | CAGCGTAGGG | 1.02
62 | GACGACCAGC | 1.48
63 | ACGAACATAG | 1.27
64 | ACAAAATCTG | 1.11
65 | GAAGTCACAT | 1.01
66 | GCTGGCCTGT | 0.973
67 | CGAAACACCC | 1.19
68 | GCGCAATAGG | 2.59
69 | GTTAGTATTT | 0.952
70 | TGTGTGCGAA | 0.99
71 | TCGGCTGATA | 0.998
72 | GCCCTTCGTC | 1.17
73 | TAACAGCTTA | 1
74 | AAGTGAAGGT | 1
75 | GCCTCTTTGT | 0.983

Row | Sequence | switch fluorescence ratio
76 | CTCTCAACGT | 0.999
77 | TTACCGCGAC | 2.01
78 | CAATTGATAT | 0.992
79 | GAGTAGCGTT | 0.974
80 | CACGGGCCTT | 0.929
81 | CATGTTGACA | 0.991
82 | TGGATGTCTA | 0.991
83 | AGCAGCAATG | 1.53
84 | CCAGCACCGG | 1.04
85 | TCTTGGAAT | 0.994
86 | ACGAAAAGCT | 1.08
87 | AACTGCTTGG | 1.01
88 | GGATACAAGA | 1.02
89 | TTTGATATCG | 0.992
90 | GCCGTGCGCC | 1.05
91 | GGTGATTCCC | 0.984
92 | GCTGCCGTTT | 1.01
93 | ACGTAACTTA | 1.13
94 | GCAGGTGCAG | 1.04
95 | TAATTCTGTG | 0.99
96 | CCGTCCTAGC | 1.24
97 | AAAAATATT | 0.99
98 | ATTACCGTC | 1.05
99 | GGAGCAACTT | 2.64
100 | TGTATCAGGT | 0.975

Row | Sequence | switch fluorescence ratio
101 | ACATGATGCT | 0.985
102 | CACTTCTTTC | 0.986
103 | TATCGTGGAC | 0.961
104 | AATTGATACA | 0.997
105 | CTTAGCATGG | 1.07
106 | AGAGTCCGCG | 1.19
107 | AGGATTCGCT | 0.996
108 | CCCACTAATT | 1.02
109 | CTATCTGCTC | 1
110 | ATTGCTACTC | 1.18
111 | TACTCCCCGC | 1.3
112 | CCTTCATT | 1.04
113 | CCTCCTTTAT | 2.46
114 | GATGTGCGGG | 1.01
115 | AATTAGCGGA | 1.01
116 | ATCTTGGTAT | 0.988
117 | TGGATCAGGC | 1.01
118 | TTGATGCCGT | 1.18
119 | AACACGCGGC | 1.09
120 | CGTTCTGCGG | 1
121 | ATGCACGTCG | 1.08
122 | CGAGTTGG | 1.04
123 | CCCGTTGTGT | 1.03
124 | GATATTCGG | 0.989
125 | ATTGAGATAA | 1.01

Row | Sequence | switch fluorescence ratio
126 | CTATTGGGTC | 0.997
127 | TGATAAGTGC | 1.01
128 | CCCGACCCAG | 1.11
129 | CTCCGTGCAG | 1.57
130 | CACTATTCAC | 1.11
131 | AGTCGTTAAG | 0.984
132 | TTACTTACGC | 1.33
133 | GGGCGGGTAC | 1.15
134 | GCGCGAGCGT | 0.928
135 | CTAGCACTCG | 0.994
136 | ACGTGACTGC | 1.25
137 | GAAACTTGAG | 1.11
138 | AGTAGATCAA | 1.05
139 | ACGGTCTAGG | 1
140 | TGCACAGGCC | 1.03
141 | CAAGATCCCG | 0.991
142 | TGCATAAAAG | 0.988
143 | CCCAAATCC | 1.09
144 | TCTAGCAGCG | 1.04
145 | TTCGCCAGTT | 0.998
146 | CTGTAACCGA | 1.15
147 | CACTGAAGAG | 0.989
148 | AATCCGGTA | 1.05
149 | TGCGATTGCG | 1.01
150 | TGCGTAAGG | 0.982

Row | Sequence | switch fluorescence ratio
151 | GGGTGAAGCG | 0.983
152 | TCGGGACCTC | 1.02
153 | AGAAGGCTTT | 0.987
154 | TCTGTATACT | 1.06
155 | CGTGAGAGAG | 0.994
156 | GTGGACTGAG | 0.945
157 | AGTATGTAA | 1
158 | GCGCTCTCCT | 1.29
159 | TAGCGGAGGG | 0.968
160 | CTTGTATATA | 0.989
161 | TTCCGTTCGT | 0.981
162 | GCGAGGGAAG | 1.03
163 | TGGACGTCGG | 1.03
164 | TTCATGGCAT | 0.986
165 | GCTTAAGTAA | 0.959
166 | CTCTGGAAGG | 1.15
167 | GCTTTCACT | 1.01
168 | GATGCGGTGT | 0.992
169 | GTTTCTCTGT | 0.993
170 | CGAAGTACTA | 1.29
171 | CTGATAGGGT | 0.976
172 | GATTTAGTTT | 0.973
173 | GATGTAGTTA | 0.983
174 | TACACCCTGC | 1.14
175 | GCTGCCCCGA | 1.09

Row | Sequence | switch fluorescence ratio
176 | ATCTGCCCGC | 1.08
177 | GGGAATCCTG | 1.02
178 | CTTAAGATTG | 0.954
179 | TGTACTCGCG | 1
180 | ACTGTCGCAA | 1.12
181 | GCTGGTGATA | 1.02
182 | CAATGAAAAG | 1.01
183 | GAGGTACGTC | 0.976
184 | AAGAGGGAA | 0.987
185 | TCTAACTGGG | 0.989
186 | AACGATTATT | 1.03
187 | CACCAAAGCC | 1.11
188 | GACTTTGTGA | 1.02
189 | CGGTCACGTA | 0.937
190 | TACCGCTCAG | 1.06
191 | TCGTGTTTCG | 1.08
192 | GCCCTTCCGC | 1.38
193 | CCGCTTAGGG | 1.23
194 | CCGGGATTAA | 1
195 | CGTCATCGGC | 1.01
196 | TTACCATCTG | 0.976
197 | ACATCGTGCC | 0.987
198 | GATATCTTCT | 1.02
199 | TATCAGAGAT | 1.01
200 | TGGCTTTCCA | 1.05
